In the assay the target is human CD3 on Jurkat cells (human) (UniProt P07766). In words: flow cytometry on Jurkat cells, FITC anti-human IgG secondary.

B1: Control Antibody 1, Anti-hCD3_L2K with wild-type human IgG1 heavy chain constant region (antibody, part only; not given: L2K light chain, part only)
heavy: DVQLVQSGAEVKKPGASVKVSCKASGYTFTRYTMHWVRQAPGQGLEWIGYINPSRGYTNYADSVKGRFTITTDKSTSTAYMELSSLRSEDTATYYCARYYDDHYCLDYWGQGTTVTVSS[in this place human IgG1 constant region]
As for B1, the Geom. Mean:FITC-A was determined as 2700.

These data come from patent US20180371090A1.
